Assay results: the antibiotic and cytotoxicity screens of Wong et al. (2023)
Some of the results follow.

What follows are molecules tested on S. aureus RN4220 (assay: growth inhibition call (relative growth <= 0.2)). Conditions: 50 µM.

Growth inhibition call, inactive:
Cc1ccc(S(=O)(=O)N[C@H]2CC[C@@H](CC(=O)N3CCC(Cc4ccccc4)CC3)O[C@H]2CO)cc1
O=C(O)C1OC(Oc2cc3oc(-c4ccccc4)cc(=O)c3c(O)c2O)C(O)C(O)C1O (stereo unspecified)
O=C(O)CN(CC(=O)O)Cc1cc2c(-c3ccccc3C(=O)O)c3cc(CN(CC(=O)O)CC(=O)O)c(=O)cc-3oc2cc1O
O=C1O[C@H](c2ccccc2)[C@H](c2ccccc2)N2[C@H]1[C@@H](C(=O)N1CCCCCCC1)[C@]1(C(=O)Nc3ccc(C#CC4=CCCCC4)cc31)[C@H]2c1ccccc1OCCO
Cc1cc(C(=O)Nc2cccc3c2O[C@@H](CN(C)S(C)(=O)=O)[C@H](C)CN([C@@H](C)CO)C3=O)n(C)n1
COc1ccc(OC)c(CCNC(=O)CN)c1
COc1ccc(S(=O)(=O)Nc2ccc3c(c2)C(=O)N([C@H](C)CO)C[C@@H](C)[C@H](CN(C)C(=O)NC(C)C)O3)cc1
Cc1cc(C(=O)Nc2cccc3c2O[C@H](CN(C)Cc2ccc4c(c2)OCO4)[C@@H](C)CN([C@H](C)CO)C3=O)n(C)n1
Cc1ccc2ccccc2n1
Cc1ccc(S(=O)(=O)N(C)C[C@H]2Oc3ccc(NC(=O)c4ccncc4)cc3CC(=O)N([C@H](C)CO)C[C@@H]2C)cc1
COc1c(OCCCN2CCOCC2)ccc2c1N=C(NC(=O)c1cnc(N)nc1)N1CCN=C21
O=C1CNc2cc(C(=O)O)ccc2N1
NNC(=O)CS(=O)(=O)c1ccc(C(F)(F)F)cn1
COc1ccc(S(=O)(=O)N(C)C[C@H]2Oc3ccc(NC(=O)c4ccncc4)cc3CC(=O)N([C@H](C)CO)C[C@H]2C)cc1
C[C@@H]1CCCCO[C@@H](CN(C)S(=O)(=O)c2ccccc2)[C@@H](C)CN([C@@H](C)CO)C(=O)c2cc(NC(=O)c3ccccc3)ccc2O1
Cc1noc(C)c1NC(=O)Nc1ccc2c(c1)C(=O)N([C@@H](C)CO)C[C@H](C)[C@@H](CN(C)CC1CCCCC1)OCCCC[C@H](C)O2
C[C@@H]1CN([C@@H](C)CO)C(=O)c2cc(NC(=O)C3CC3)ccc2O[C@@H]1CN(C)Cc1ccc(-c2ccccc2)cc1
COCC#Cc1cnc2c(c1)C(=O)N([C@@H](C)CO)C[C@H](C)[C@@H](CN(C)C(C)=O)O2
CC(C)(C)c1csc(-c2ccc(-c3cccs3)s2)n1
C[C@H](CO)N1C[C@H](C)[C@H](CN(C)C(=O)Cc2ccccn2)Oc2cc(-c3cccc(C(=O)N(C)C)c3)ccc2S1(=O)=O
C[C@@H]1CCCCO[C@H](CN(C)S(=O)(=O)c2ccc(Cl)cc2)[C@@H](C)CN([C@@H](C)CO)C(=O)c2cc(NC(=O)c3ccccc3)ccc2O1
Cc1cccc(NC(=O)Nc2ccc3c(c2)C(=O)N(C)[C@H]2CC[C@@H](CC(=O)NCc4ccccc4Cl)O[C@H]2CO3)c1
C[C@@H]1CCCCO[C@@H](CN(C)C(=O)NC2CCCCC2)[C@@H](C)CN([C@H](C)CO)C(=O)c2cc(NC(=O)Nc3ccc4c(c3)OCO4)ccc2O1
C[C@@H]1CN([C@H](C)CO)C(=O)Cc2cc(NC(=O)Nc3ccc(C(F)(F)F)cc3)ccc2O[C@@H]1CN(C)C(=O)Nc1ccc(F)cc1
C=CCN1C(=O)[C@@]2(O[C@@H](CCO)[C@H]([Si](C)(C)c3ccc(OC)cc3)[C@H]2C)c2cc(N(C=O)c3ccccc3)ccc21
CO[C@H]1CN(C)C(=O)c2ccc(NC(=O)Nc3ccccc3F)cc2OC[C@@H](C)N(Cc2ccccc2C(=O)O)C[C@@H]1C
COc1ccc(NC(=O)N(C)C[C@@H]2Oc3ccc(NS(=O)(=O)c4cn(C)cn4)cc3C(=O)N([C@@H](C)CO)C[C@H]2C)cc1
CN1CCN(C(=O)C[C@H]2C[C@@H]3c4cc(NS(=O)(=O)c5ccc(F)cc5)ccc4O[C@@H]3[C@H](CO)O2)CC1
C[C@@H]1CN([C@@H](C)CO)C(=O)c2cc(NS(=O)(=O)c3cn(C)cn3)ccc2O[C@@H]1CN(C)Cc1ccc(C(=O)O)cc1
CC(C)(C)S(=O)N1Cc2cc(C(=O)Nc3ccc(-c4ccccc4)cc3)nc(-c3cccc(-c4cccc(F)c4)c3)c2[C@@H]1CCO (stereo partly specified)
C[C@@H]1CCCCO[C@@H](CN(C)S(=O)(=O)c2ccc(F)cc2)[C@@H](C)CN([C@H](C)CO)C(=O)c2cc(NC(=O)Nc3ccc(C(F)(F)F)cc3)ccc2O1
